PubChem BioAssay AID652104 (National Center for Advancing Translational Sciences (NCATS), 2013)
Values joined by “and” are separate entries in the source; they are usually repeats but may differ in a detail not shown here. Equal entries are not always repeated. Among all 410,000 compounds or so, about 7,200 (1.8%) were called active. The shares of active, inactive and inconclusive entries below differ from those in the screen. The call rests on the fitted dose curve; in most records, active means well fitted activation curve with a large enough effect; inconclusive means small, poorly fitted or top-dose-only effect, or another doubt; inactive means no such curve, though single readings can be large or run the other way. Potencies of inconclusive entries are doubtful fits and often do not repeat.

Experiment: qHTS of TDP-43 Inhibitors; further: nearly all actives have a fitted effect of over 50% in size; on growth rescue (activation): % of control where 0% means no effect
Conditions: TDP-43 expressing yeast growth rescue, BacTiter-Glo, 24 h; growth rescue (activation): at 46.1 µM (top of the series) unless noted
Procedure, shortened: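 Galactose-induced TDP-43 yeast, OD600=0.02, compound pinned; 24 hr, 30 deg C; BacTiter-Glo luminescence for growth. Inhibitors of TDP-43 toxicity read as activators.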
Potency means the concentration at half of the fitted maximal effect; tags describe the fitted curve by direction and shape.

| SMILES | Potency | growth rescue (activation) |
| --- | --- | --- |
| O=C1CSC2(C(=O)N(Cc3cccc(F)c3)c3ccccc32)N1c1cccc(C(F)(F)F)c1 (stereo not drawn) | active: 22.4 µM | – |
| c1ccc2c(c1)-c1nc3ccccc3cc1C2N1CCOCC1 (stereo not drawn) | inconclusive: 35.5 µM [activator, single point] | – |
| COC(=O)c1cc2oc3ccccc3c2n1Cc1ccc(Cl)cc1 | inactive | – |
| Oc1ccccc1N1CCN(c2nc(-c3cccs3)nc3ccccc23)CC1 | inconclusive: 31.6 µM [activator, partial curve] | – |
| c1ccc(C[n+]2c(-c3ccccc3)csc2Nc2ccccc2)cc1 | inactive | – |
| CCn1c2c(c(=O)n3ncc(C(=O)N4CCN(c5ccc(Cl)cc5)CC4)c13)CN(Cc1ccc(OC)cc1)CC2 | inconclusive: 17.8 µM [activator, partial curve] | – |
| Cc1cc(C)n(-c2cc(Oc3ccccc3)ncn2)n1 | inconclusive: 14.1 µM [activator, single point] | – |
| CCc1ccccc1OCC(=O)Nc1nc(-c2cccnc2)cs1 | active: 6.31 µM | – |
| COc1ccccc1NC(=O)Nc1nc(C(N)Cc2ccc(C(F)(F)F)cc2)cs1 (stereo not drawn) | inconclusive: 0.562 µM [activator, full curve, poor fit] | – |
| Cc1c(C(=O)Nc2ccccc2)sc2nc(-c3cc4cc(Cl)ccc4oc3=O)[nH]c(=O)c12 | inactive | – |
| Cc1onc(-c2c(F)cccc2Cl)c1C(=O)OCc1cnc(Cl)s1 | inconclusive: 14.1 µM [activator, partial curve] | – |
| COCCCn1c(C(=O)NC2CCCCC2C)cc2c(=O)n3cccc(C)c3nc21 (stereo not drawn) | inactive | – |
| O=C(Cc1cccs1)N1CCN=C1SCc1ccc(Br)cc1 | inconclusive: 35.5 µM [activator, single point] | – |
| c1cncc(-c2nc(-c3ccc4c(c3)OCCO4)cs2)c1 | inconclusive: 20 µM [activator, single point] | – |
| Cc1ccc(C)c2nc3sc(C(=O)O)cc3cc12 | active: 14.1 µM | – |
| CCN(CC(=O)NC1CCS(=O)(=O)C1)S(=O)(=O)c1ccc2ccccc2c1 (stereo not drawn) | inactive | – |
| CC(=O)Nc1cccc(-c2csc(Nc3ccc(Cl)cn3)n2)c1 | active: 22.4 µM | – |
| O=C(Cn1ncc2c3ccccc3n(Cc3cccc(Cl)c3)c2c1=O)Nc1ccc(F)cc1F | inconclusive: 6.31 µM [activator, single point] | – |
| O=C(NNC(=O)c1ccco1)c1ccccc1 | inactive | – |
| CC(C)Cn1c(-c2cccs2)nc2nc3ccccc3nc21 | inconclusive: 15.8 µM [activator, partial curve] | – |
| O=C(O)CCc1nnc(SCC(=O)Nc2cccc(C(F)(F)F)c2)[nH]c1=O | inconclusive: 3.16 µM [activator, partial curve] | – |
| COc1ccccc1N1CCN(S(=O)(=O)/C=C/c2ccccc2)CC1 | inconclusive: 20 µM [activator, single point] | – |
| N#Cc1c(-c2ccccc2)nc(N2CCCCCC2)[nH]c1=O | inactive | – |

| SMILES | Potency | growth rescue (activation) |
| --- | --- | --- |
| O=C1C=C(c2c(O)ccc3ccccc23)c2ccccc2C1=O | inconclusive: 20 µM [activator, single point] | – |
| COc1cccc(N2CCN(C(=O)c3cc4c(s3)-c3ccccc3OC4)CC2)c1 | inconclusive: 10 µM [activator, partial curve] and inconclusive: 6.31 µM [activator, single point] | – |
| CC(=O)N1CCc2c(sc3c2c(=O)n(CCc2ccccc2)c(=O)n3Cc2ccccc2C)C1 | active: 35.5 µM | – |
| O=C(NCc1nnnn1-c1ccc(F)cc1)c1ccc2ccccc2c1 | inconclusive: 17.8 µM [activator, single point] | – |
| O=C(CO/N=C/c1ccc(OC(F)F)cc1)NC1CCCCCC1 | inconclusive: 17.8 µM [activator, partial curve] | – |
| C=C1CCN(c2ccc(C(=O)NCCC)cc2[N+](=O)[O-])CC1 | inconclusive: 35.5 µM [activator, partial curve] | – |
| Cc1cc(C)c2c(c1)c(C)cc1nnc(SCc3ccccc3C#N)n12 | inconclusive: 14.1 µM [activator, partial curve] | – |
| Cc1cccc(N2CCN(S(=O)(=O)c3ccc4c(c3)NC(=O)CS4)CC2)c1C | inconclusive: 17.8 µM [activator, single point] | – |
| Cc1ccc(C)c(NC(=O)CSc2nc(C)cs2)c1 | inconclusive: 22.4 µM [activator, single point] | – |
| CCOc1cc2[nH]c(=O)n(CCCCCC(=O)NCc3ccco3)c(=O)c2cc1OCC | inconclusive: 2.24 µM [activator, full curve] | – |
| O=C1C=C(c2ccc3[nH]ccc3c2)C[C@@H](c2ccc(F)cc2)C1 | inconclusive: 35.5 µM [activator, single point] | – |
| CCOc1ccc(Cn2c(=O)sc3ccccc32)cc1 | inconclusive: 3.55 µM [activator, full curve] and inconclusive: 7.08 µM [activator, partial curve] | – |
| Cc1cccn2c(=O)c3cc(C#N)c(=O)n(-c4nnc(SCc5ccc(Cl)cc5)s4)c3nc12 | inactive | – |
| CC1(C(=O)Nc2cccc3c2CCCC3)CCN1C(=O)C1(c2ccccc2)CC1 (stereo not drawn) | inconclusive: 0.316 µM [activator, full curve, poor fit] | – |
| COC(=O)c1oc2ccc(Cl)cc2c1-n1cccc1 | inconclusive: 35.5 µM [activator, partial curve] | – |
| O=C(O)C1(Nc2ccccc2Cl)CCCC1 | inconclusive: 20 µM [activator, single point] | – |
| CN(N=Nc1cccc([N+](=O)[O-])c1)c1cccc([N+](=O)[O-])c1 | inconclusive: 0.501 µM [activator, full curve, poor fit] | – |
| COc1cc(OC)cc(-c2c(-c3cccs3)c3cc(-c4ccc(OC)c(OC)c4)ccc3n2C)c1 | inconclusive: 3.98 µM [activator, partial curve] | – |
| CC(C)(C)C(=O)Nc1nc(-c2ccccc2)ns1 | inconclusive: 15.8 µM [activator, single point] | – |
| COc1ccc2c(c1)-c1ccccc1S(=O)(=O)N(C)C2 | inconclusive: 12.6 µM [activator, partial curve] | – |
| COc1ccc(N2CCN(C(=O)c3ccc(COc4ccc([N+](=O)[O-])cc4)o3)CC2)cc1 | active: 11.2 µM | – |
| COc1ccc(C(=O)OCCNC(=O)c2c(Cl)nc3ccccn23)cc1 | inconclusive: 20 µM [activator, single point] | – |
| CCN(CC)c1c(C)nc2ccc(C(=O)Nc3cc(-c4ccccc4)ccc3OC)cn12 | inconclusive: 11.2 µM [activator, partial curve] | – |

| SMILES | Potency | growth rescue (activation) |
| --- | --- | --- |
| O=C(Oc1ccccc1F)c1nc(SCc2ccc(F)cc2)ncc1Cl | inactive | – |
| Cc1ccc(C(=O)OC(C)C(=O)NC2CCCCC2C)s1 (stereo not drawn) | inconclusive: 11.2 µM [activator, partial curve] | – |
| COc1ccc(C(=O)Nc2cccc(/C=C(\CCC(=O)O)c3nc4ccccc4s3)c2)cc1 | inconclusive: 17.8 µM [activator, single point] | – |
| O=C(NC1CCCCC1)c1ccc([N+](=O)[O-])o1 | inconclusive: 22.4 µM [activator, partial curve] | – |
| Cc1cc(N2CCN(C(=O)c3cccs3)CC2)c(F)cc1[N+](=O)[O-] | active: 12.6 µM | – |
| CC1Cc2cc(S(=O)(=O)N3CCCCC3C)ccc2N1C(=O)C1CCC1 (stereo not drawn) | inconclusive: 17.8 µM [activator, partial curve] | – |
| O=C(CC1CC2CCC1C2)Nc1nc(-c2ccccn2)cs1 (stereo not drawn) | active: 17.8 µM | – |
| CC(C)c1noc(-c2ccccc2OCC(=O)Nc2cccc([N+](=O)[O-])c2)n1 | inactive | – |
| CC(C)Sc1ncc(Cl)c(C(=O)Nc2ccc(S(=O)(=O)N3CCCCC3)cc2)n1 | inactive | – |
| Cc1cc(C)c2sc(N3CCN(C(=O)c4ccc(N(C)C)cc4)CC3)nc2c1 | inconclusive: 17.8 µM [activator, partial curve] | – |
| Cc1ccc(C)c(-c2nnc(NC(=O)Cc3ccccc3)o2)c1 | inactive | – |
| Cc1sc2ncnc(N/N=C/c3ccccc3O)c2c1C | inconclusive: 35.5 µM [activator, single point] | – |
| COc1ccc(NC(=O)Cn2c(=O)n(Cc3ccccc3)c(=O)c3sc4ccccc4c32)cc1 | inactive | – |
| CCOc1ccc(S(=O)(=O)N2CCOCC2)cc1NC(=O)CCOc1ccc(C(C)(C)C)cc1 | – | inconclusive: 30.8% [activator] |
| Cn1nc(-c2ccccc2F)c2cc(C(=O)Nc3ccc4c(c3)OCCO4)sc21 | active: 15.8 µM | – |
| Cc1ccccc1NC(=O)C1CC(Cl)=CCC1C(=O)O (stereo not drawn) | inconclusive: 31.6 µM [activator, single point] | – |
| O=C(/C=C/c1ccco1)NC(=S)NNC(=O)c1ccco1 | inconclusive: 11.2 µM [activator, single point] | – |
| CCCOc1ccc(CNC(=S)Nc2ccccc2)cc1Cl | inconclusive: 22.4 µM [activator, single point] | – |
| COc1cc(SC)ccc1C(=O)NCCc1ccccc1 | inconclusive: 22.4 µM [activator, single point] | – |
| O=C(N/N=C/c1ccccc1O)C(=O)Nc1ccccn1 | inconclusive: 11.2 µM [activator, single point] | – |
| COc1ccc(N2C(=O)CSC23C(=O)N(CC(=O)NCCc2ccccc2)c2ccccc23)cc1 (stereo not drawn) | inactive | – |
| CCOc1ccc2ncc3c(-c4cccc(OC)c4)nn(-c4ccccc4)c3c2c1 | inconclusive: 22.4 µM [activator, partial curve, poor fit] | – |
